Some of the results follow.
Legend:
Assay in all cases: glycan array binding signal (z-score within array); higher = stronger binding
Details in all cases: glycan notation: IUPAC condensed, linker removed
[1] = target: Neu5Ac(a2-3)Gal(b1-4)GlcNAc(b1-2)[Neu5Ac(a2-3)Gal(b1-4)GlcNAc(b1-4)]Man(a1-3)[GlcNAc(b1-4)][Neu5Ac(a2-3)Gal(b1-4)GlcNAc(b1-2)[Neu5Ac(a2-3)Gal(b1-4)GlcNAc(b1-6)]Man(a1-6)]Man(b1-4)GlcNAc(b1-4)GlcNAc
Summary of the method: (§1)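 Negative Z-scores can be read as non-binding. The Z-score is calculated within each array and then averaged across arrays of one protein sequence at different concentrations or buffers and across linkers. Arrays, 3228 in all, were curated from the Consortium for Functional Glycomics database and kept only where the protein sequence was available.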

[2] = target: Neu5Ac(a2-3)Gal(b1-4)GlcNAc(b1-2)[Neu5Ac(a2-3)Gal(b1-4)GlcNAc(b1-4)]Man(a1-3)[GlcNAc(b1-4)][Neu5Ac(a2-3)Gal(b1-4)GlcNAc(b1-4)Man(a1-6)]Man(b1-4)GlcNAc(b1-4)GlcNAc
Summary of the method: as §1

[3] = target: Neu5Ac(a2-3)Gal(b1-4)GlcNAc(b1-2)[Neu5Ac(a2-3)Gal(b1-4)GlcNAc(b1-6)]Man(a1-6)[Neu5Ac(a2-3)Gal(b1-4)GlcNAc(b1-2)Man(a1-3)][GlcNAc(b1-4)]Man(b1-4)GlcNAc(b1-4)GlcNAc
Summary of the method: as §1

[4] = target: Neu5Ac(a2-3)Gal(b1-4)GlcNAc(b1-3)Gal
Summary of the method: as §1

[5] = target: Neu5Ac(a2-3)Gal(b1-4)GlcNAc(b1-3)Gal(b1-3)GlcNAc
Summary of the method: as §1

[6] = target: Neu5Ac(a2-3)Gal(b1-4)GlcNAc(b1-3)Gal(b1-4)GlcNAc
Summary of the method: as §1

[7] = target: Neu5Ac(a2-3)Gal(b1-4)GlcNAc(b1-3)Gal(b1-4)GlcNAc(b1-2)Man(a1-3)[Neu5Ac(a2-3)Gal(b1-4)GlcNAc(b1-3)Gal(b1-4)GlcNAc(b1-2)Man(a1-6)]Man(b1-4)GlcNAc(b1-4)GlcNAc
Summary of the method: as §1

[8] = target: Neu5Ac(a2-3)Gal(b1-4)GlcNAc(b1-3)Gal(b1-4)GlcNAc(b1-3)Gal(b1-4)GlcNAc
Summary of the method: as §1

[9] = target: Neu5Ac(a2-3)Gal(b1-4)GlcNAc(b1-3)Gal(b1-4)GlcNAc(b1-3)Gal(b1-4)GlcNAc(b1-2)Man(a1-3)[Neu5Ac(a2-3)Gal(b1-4)GlcNAc(b1-3)Gal(b1-4)GlcNAc(b1-3)Gal(b1-4)GlcNAc(b1-2)Man(a1-6)]GalNAc
Summary of the method: as §1

[10] = target: Neu5Ac(a2-3)Gal(b1-4)GlcNAc(b1-3)Gal(b1-4)GlcNAc(b1-3)GalNAc
Summary of the method: as §1

[11] = target: Neu5Ac(a2-3)Gal(b1-4)GlcNAc(b1-3)Gal(b1-4)GlcNAc(b1-3)[Neu5Ac(a2-3)Gal(b1-4)GlcNAc(b1-3)Gal(b1-4)GlcNAc(b1-6)]GalNAc
Summary of the method: as §1

[12] = target: Neu5Ac(a2-3)Gal(b1-4)GlcNAc(b1-3)Gal(b1-4)GlcNAc(b1-6)[Gal(b1-3)]GalNAc
Summary of the method: as §1

[13] = target: Neu5Ac(a2-3)Gal(b1-4)GlcNAc(b1-3)Gal(b1-4)[Fuc(a1-3)]GlcNAc
Summary of the method: as §1

[14] = target: Neu5Ac(a2-3)Gal(b1-4)GlcNAc(b1-3)GalNAc
Summary of the method: as §1

[15] = target: Neu5Ac(a2-3)Gal(b1-4)GlcNAc(b1-3)[Neu5Ac(a2-3)Gal(b1-4)GlcNAc(b1-6)]GalNAc
Summary of the method: as §1

[16] = target: Neu5Ac(a2-3)Gal(b1-4)GlcNAc(b1-6)GalNAc
Summary of the method: as §1

[17] = target: Neu5Ac(a2-3)Gal(b1-4)GlcNAc(b1-6)[Gal(b1-3)]GalNAc
Summary of the method: as §1

[18] = target: Neu5Ac(a2-3)Gal(b1-4)GlcNAc(b1-6)[Neu5Ac(a2-3)Gal(b1-3)]GalNAc
Summary of the method: as §1

[19] = target: Neu5Ac(a2-3)Gal(b1-4)GlcNAc6S
Summary of the method: as §1

[20] = target: Neu5Ac(a2-3)Gal(b1-4)[Fuc(a1-3)]GlcNAc
Summary of the method: as §1

[21] = target: Neu5Ac(a2-3)Gal(b1-4)[Fuc(a1-3)]GlcNAc(b1-2)Man
Summary of the method: as §1

[22] = target: Neu5Ac(a2-3)Gal(b1-4)[Fuc(a1-3)]GlcNAc(b1-3)Gal
Summary of the method: as §1

[23] = target: Neu5Ac(a2-3)Gal(b1-4)[Fuc(a1-3)]GlcNAc(b1-3)Gal(b1-4)GlcNAc
Summary of the method: as §1

[24] = target: Neu5Ac(a2-3)Gal(b1-4)[Fuc(a1-3)]GlcNAc(b1-3)Gal(b1-4)[Fuc(a1-3)]GlcNAc(b1-3)Gal(b1-4)[Fuc(a1-3)]GlcNAc
Summary of the method: as §1

[25] = target: Neu5Ac(a2-3)Gal(b1-4)[Fuc(a1-3)]GlcNAc(b1-3)GalNAc
Summary of the method: as §1

[26] = target: Neu5Ac(a2-3)Gal(b1-4)[Fuc(a1-3)]GlcNAc(b1-6)[Gal(b1-3)]GalNAc
Summary of the method: as §1

[27] = target: Neu5Ac(a2-3)Gal(b1-4)[Fuc(a1-3)]GlcNAc(b1-6)[Neu5Ac(a2-3)Gal(b1-3)]GalNAc
Summary of the method: as §1

[28] = target: Neu5Ac(a2-3)Gal(b1-4)[Fuc(a1-3)]GlcNAc6S
Summary of the method: as §1

[29] = target: Neu5Ac(a2-3)Gal6S(b1-4)GlcNAc
Summary of the method: as §1

[30] = target: Neu5Ac(a2-3)Gal6S(b1-4)[Fuc(a1-3)]GlcNAc
Summary of the method: as §1

[31] = target: Neu5Ac(a2-3)GalNAc
Summary of the method: as §1

[32] = target: Neu5Ac(a2-3)GalNAc(b1-4)GlcNAc
Summary of the method: as §1

[33] = target: Neu5Ac(a2-3)[GalNAc(b1-4)]Gal(b1-4)Glc
Summary of the method: as §1

[34] = target: Neu5Ac(a2-3)[GalNAc(b1-4)]Gal(b1-4)GlcNAc
Summary of the method: as §1

[35] = target: Neu5Ac(a2-3)[GalNAc(b1-4)]Gal(b1-4)GlcNAc(b1-3)GalNAc
Summary of the method: as §1

[36] = target: Neu5Ac(a2-3)[Neu5Ac(a2-6)]GalNAc
Summary of the method: as §1

[37] = target: Neu5Ac(a2-6)Gal
Summary of the method: as §1

B1: B1567 (Bifidobacterium sp) (protein)
chain: MKFTTAKKAVALTGAVAMLVSVAACGSDSGKSSQPAQDSDVKEITVWAWEPSLTQVAKDFEKETGIKVDLKNVGTNTKEYTQLDNAIEAGSGAPDVAQVEYYAVPQYAIKGNLLDITDKTSGYKDFYTPGPWASVQFAGKVYGLPMDSGPMAFFYNKEVFDKAGVDAEQIKTWDQYYDAAKKIHALGDNYYITSDTGDAGFFDSMTWLAGAKPFQTSSDGSEVTVNLTEDKGVKTFTDFWQKLLDEGLLDTKTAGWSEDWFKGMVDGTIASLFTGAWMPANLANSAADGAGKWRVTQMPTADGSTTNSENGGSSLAVLASTKKADAAYQFIEYANHGAGVATRVAGGAFPADKASLEKDSFKNATTVKNADGQDVDYFGGQKYNEVLAQAAENVSSGYQFLPFEVKARTIFGDYFGKSYTGDQKLSDGVAAWQKALQDYGKDQGFTVK
glycan array binding signal (z-score) [1]: -0.117
glycan array binding signal (z-score) [2]: -0.119
glycan array binding signal (z-score) [3]: -0.095
glycan array binding signal (z-score) [4]: -0.127
glycan array binding signal (z-score) [5]: -0.129
glycan array binding signal (z-score) [6]: -0.037
glycan array binding signal (z-score) [7]: -0.003
glycan array binding signal (z-score) [8]: -0.128
glycan array binding signal (z-score) [9]: 0.089
glycan array binding signal (z-score) [10]: -0.191
glycan array binding signal (z-score) [11]: 0.001
glycan array binding signal (z-score) [12]: -0.13
glycan array binding signal (z-score) [13]: -0.145
glycan array binding signal (z-score) [14]: -0.027
glycan array binding signal (z-score) [15]: -0.09
glycan array binding signal (z-score) [16]: -0.088
glycan array binding signal (z-score) [17]: -0.096
glycan array binding signal (z-score) [18]: -0.097
glycan array binding signal (z-score) [19]: -0.084
glycan array binding signal (z-score) [20]: -0.082
glycan array binding signal (z-score) [21]: -0.132
glycan array binding signal (z-score) [22]: -0.124
glycan array binding signal (z-score) [23]: -0.046
glycan array binding signal (z-score) [24]: -0.073
glycan array binding signal (z-score) [25]: 0.075
glycan array binding signal (z-score) [26]: 0.179
glycan array binding signal (z-score) [27]: -0.104
glycan array binding signal (z-score) [28]: -0.166
glycan array binding signal (z-score) [29]: -0.141
glycan array binding signal (z-score) [30]: -0.1
glycan array binding signal (z-score) [31]: -0.12
glycan array binding signal (z-score) [32]: -0.096
glycan array binding signal (z-score) [33]: -0.155
glycan array binding signal (z-score) [34]: -0.145
glycan array binding signal (z-score) [35]: -0.079
glycan array binding signal (z-score) [36]: -0.129
glycan array binding signal (z-score) [37]: -0.082
